# Results: PubChem BioAssay AID485364 (National Center for Advancing Translational Sciences (NCATS), 2010)
# Screen size: about 360,000 compounds; about 11,000 (3.1%) were called active. The inconclusive results got no clear call from the source; some entries with a clear call stand among them for comparison. The call rests on the fitted dose curve; in most records, active means well fitted inhibition curve with a large enough effect; inconclusive means small, poorly fitted or top-dose-only effect; inactive means no such curve, though single readings can be large or run the other way. Potencies of inconclusive entries are left out as doubtful fits.
# Target: Schistosoma mansoni thioredoxin glutathione reductase (TGR) (UniProt Q962Y6)
# Assay: qHTS Assay for the Inhibitors of Schistosoma Mansoni Peroxiredoxins; further: nearly all actives have a fitted effect of over 60% in size
# Conditions: purified TGR, DTNB reduction, TNB absorbance 405 nm; activity change, negative = inhibition: at 114 µM (top of the series) unless noted
# Method in brief: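 Kinetic colorimetric format: TGR-catalysed, NADPH-driven DTNB reduction monitored via TNB absorbance. Enzyme dispensed at 20 nM; compound exposure 15 min at room temperature before reaction start.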
# On the % scale 0 is the no-effect control and ±100 the full control effect; potency means the concentration at half of the fitted maximal effect; tags describe the fitted curve by direction and shape.
SMILES,Potency,"activity change, negative = inhibition"
CCCN1C(=O)S/C(=C/c2ccc(N3CCOCC3)o2)C1=O,active: 1.41 µM,–
COc1cc(OC)cc(C(=O)Nc2c(C(=O)Nc3ccc(F)cc3)oc3ccccc23)c1,inactive,–
CC(C)OC(=O)c1cccc(C(=O)OCc2ccco2)n1,"inconclusive [inhibitor, partial curve]",–
O=C(NCc1ccncc1)C1CCCCC1,inactive,–
Cc1nc(-c2ccc(F)cc2)sc1CCNC(=O)c1ccco1,inactive,–
CCCCCC(=O)N1CCN(CCN=CC2=C(O)CC(c3ccc(OC)c(OC)c3)CC2=O)CC1 (stereo unspecified),"inconclusive [inhibitor, single point]",–
C#CCOCCOCCOCCNc1nc(N2CCN(C(=O)[C@H]([C@@H](C)CC)n3cc([C@@H](N)Cc4ccc(O)cc4)nn3)CC2)nc(N2CCN(C(=O)[C@H](Cc3cc4ccccc4[nH]3)n3cc([C@@H](N)C(C)CC)nn3)CC2)n1 (stereo partly specified),"inconclusive [inhibitor, partial curve, poor fit]",–
COCC(=O)N1CCCC(C(=O)c2ccc(-c3ccccc3)cc2)C1 (stereo unspecified),active: 28.2 µM,–
O=C(NC(CO)(CO)CO)c1coc(=O)c(Br)c1,inactive,–
COC(=O)c1cc(C(=O)OC)cc(N2C(=O)CC(NNC(=O)c3ccccc3Br)C2=O)c1 (stereo unspecified),"inconclusive [inhibitor, partial curve]",–
Cc1cc(O)cc2c1C(=O)/C(=C/c1ccco1)O2,active: 31.6 µM,–
Cc1ccc(CCNc2nc3c(S(=O)(=O)c4ccc(C)cc4)nnn3c3ccsc23)cc1,"inconclusive [inhibitor, single point]",–
C=CCNC(=S)Nc1ccc(C)cc1[N+](=O)[O-],active: 39.8 µM,–
O=C(CSc1nnc(C2CCCCC2)n1Cc1ccccc1)NCc1ccco1,"inconclusive [inhibitor, partial curve]",–
CC(=O)Oc1c(Br)cc(N(C(C)=O)S(=O)(=O)c2ccccc2)c2ccccc12,active: 3.55 µM,–
Cc1ccc(C)n1-c1nnc(N2CCCC(C(=O)NCc3ccc(F)cc3)C2)s1 (stereo unspecified),"inconclusive [inhibitor, partial curve]",–
COc1ccc(OC(=O)COc2cc(C)ccc2C)cc1,"inconclusive [inhibitor, partial curve]",–
C#CCOCCOCCOCCNc1nc(N2CCOCC2)nc(N2CCN(C(=O)[C@H](CCCCN)n3cc([C@@H](N)C(C)CC)nn3)CC2)n1 (stereo partly specified),"inconclusive [inhibitor, single point]",–
O=C(CSc1nnnn1C1CCCC1)Nc1cccc(NC(=O)c2ccco2)c1,"inconclusive [inhibitor, partial curve, poor fit]",–
COc1cc(/C=N/Nc2ccc(C(=O)O)cc2)ccc1O,"inconclusive [inhibitor, partial curve]",–
O=C(Nc1ccc(F)c(F)c1)c1cccnc1,–,inactive: 15.6% [at 11.4 µM]
Cc1nc(CNC(=O)CC2C(=O)NCCN2Cc2ccc(F)cc2)cs1 (stereo unspecified),"inconclusive [inhibitor, partial curve]",–
O=C1C(=Cc2ccc(Br)o2)C(=O)c2ccccc21,active: 11.2 µM,–
Oc1ccc(Cl)cc1Nc1nc2ccccc2n2cnnc12,inactive,–

SMILES,Potency,"activity change, negative = inhibition"
N/C(=N\OC(=O)c1cccc(Br)c1)c1ccccn1,inactive,–
COc1ccc(NC(=O)c2noc3c2CSc2ccccc2-3)cc1Cl,inactive,–
CCNC(=S)N/N=C(\C)c1cccc(OC)c1,"inconclusive [inhibitor, full curve, poor fit]",–
CCOC(=O)CCc1cccc2c1CCC2=O,"inconclusive [inhibitor, full curve]",–
CCNC(=S)Nc1ccc(Cc2nc3ccccc3[nH]2)cc1,"inconclusive [inhibitor, partial curve]",–
CCc1ccc(N(C(=O)c2snc(C(N)=O)c2N)C(C(=O)NCC2CCCO2)c2cccs2)cc1 (stereo unspecified),inactive,–
Cc1ccc2oc3c(c(=O)c2c1)C(c1cccc(Cl)c1)N(CCCN1CCOCC1)C3=O (stereo unspecified),"inconclusive [inhibitor, full curve, poor fit]",–
O=C(CSc1nc(C(F)(F)F)cc(=O)[nH]1)Nc1cccc2ccccc12,inactive,–
OCc1ccccc1N=c1ssnc1Cl,"inconclusive [inhibitor, single point]",–
CCOC(=O)C1CCCN(C(=O)c2[nH]c3ccc(OC)cc3c2C)C1 (stereo unspecified),"inconclusive [inhibitor, partial curve]",–
Cc1[nH]n(-c2ccccc2)c(=O)c1C(c1ccc([N+](=O)[O-])cc1)c1c(C)[nH]n(-c2ccccc2)c1=O,"inconclusive [inhibitor, partial curve]",–
CC(=O)Nc1ccc(N2Cc3ccccc3C2)cc1,active: 12.6 µM,–
COc1cc(OC)cc(C(=O)N[C@H](C(=O)Nc2ccccc2N2CCOCC2)C(C)C)c1,inactive,–
CCn1cc(C(=O)O)c(=O)c2cc(F)c(N3CCN(C(=S)NC(=O)c4c(OC)cccc4OC)CC3)cc21,inactive,–
N=c1c2c(-c3ccccc3)c(-c3ccccc3)n(Cc3ccco3)c2ncn1Cc1ccco1,"inconclusive [inhibitor, partial curve]",–
O=C(NCc1ccco1)c1ccccc1SCC(=O)N1CCCC1,inactive,–
Cc1ccc(NC(=O)C2CCCN(c3nnc(-n4c(C)ccc4C)s3)C2)cc1Cl (stereo unspecified),"inconclusive [inhibitor, single point]",–
Cn1c2ccccc2c2cc(/C=N/NC(=O)c3cc(O)ccc3O)ccc21,"inconclusive [inhibitor, partial curve, poor fit]",–
CCOC(=O)c1c(COC(=O)c2ccco2)nc2ccccc2[n+]1[O-],"inconclusive [inhibitor, partial curve]",–
O=C(Nc1ccncc1)c1cccc(S(=O)(=O)N2CCc3ccccc32)c1,inactive,–
O=C(CCc1ccccn1)N1CCCC(N2CCN(c3cccc(C(F)(F)F)c3)CC2)C1 (stereo unspecified),"inconclusive [inhibitor, partial curve]",–
COc1cc(/C=C2\C(=O)NC(=O)N(c3ccccc3)C2=O)cc(OC)c1OC,"inconclusive [inhibitor, full curve, poor fit]",–
O=S(=O)(c1ccc(Cl)cc1)N1CCN(Cc2ccncc2)CC1,"inconclusive [inhibitor, partial curve]",–
Oc1ccc(Nc2nc(-c3ccccc3)nc3ccccc23)cc1,inactive,–

SMILES,Potency,"activity change, negative = inhibition"
N#CCCN1CCNCC1,"inconclusive [inhibitor, single point]",–
CCCCN(C(=O)c1ccc(Br)o1)C1CCS(=O)(=O)C1 (stereo unspecified),"inconclusive [inhibitor, partial curve]",–
COC(=O)C1=C(c2ccc(OC(F)(F)F)cc2)C[C@@H]2CC[C@H]1N2C(=O)NCc1ccc(F)cc1,inactive,–
C=CCn1c(CSCc2ccccc2)nnc1SCC(=O)N1CCN(c2ccccc2)CC1,"inconclusive [inhibitor, partial curve]",–
O=C(CN1CCc2cc3c(cc2C1)OCCCO3)Nc1ccc(F)cc1,"inconclusive [inhibitor, full curve, poor fit]",–
CC1(C)Cc2c(c(N3CCCCC3)[nH]c(=S)c2C#N)CS1,"inconclusive [inhibitor, partial curve]",–
COc1ccc(N(CC(=O)NCCSCc2ccccc2Cl)S(C)(=O)=O)cc1Cl,inactive,–
Cc1ccc(C2=CC(c3ccc(N(C)C)cc3)n3nnnc3N2)cc1 (stereo unspecified),"inconclusive [inhibitor, partial curve]",–
Cc1c(C(=O)N2CCC(C)CC2)c(S(=O)(=O)N2CCN(c3ccc(Cl)cc3)CC2)c(C)n1C,inactive,–
Cc1cc(C(=O)O)ccc1[N+](=O)[O-],"inconclusive [inhibitor, partial curve]",–
O=c1[nH]c(=S)[nH]c(O)c1N=Nc1cc(S(=O)(=O)Nc2ccc(Cl)cc2)ccc1Cl,"inconclusive [inhibitor, partial curve]",–
CN(CC(=O)Nc1ccc(N2CCOCC2)cc1)C(=O)CCNC(=O)c1ccc(Br)cc1,inactive,–
CCCc1cc2c(-c3ccccc3)cc(=O)oc2cc1OCc1ccc(C(=O)O)o1,"inconclusive [inhibitor, single point]",–
Cc1cccc(N2CCN(C3(c4ccccc4)C(=O)c4ccccc4C3=O)CC2C)c1 (stereo unspecified),inactive,–
Cc1cccc(NC(=O)CCn2nc(-c3ccccc3)c3ccccc3c2=O)c1,inactive,–
N#CC1=C(N)N(c2ccc(F)cc2)C2=C(C1c1ccc(O)cc1)S(=O)(=O)CC2 (stereo unspecified),active: 1.78 µM,–
Cc1nn2c3ccccc3nc2c2ccccc12,inactive,–
COc1ccc(C2CC23N=C(c2ccccc2)OC3=O)cc1 (stereo unspecified),active: 22.4 µM,–
N#CCCN(Cc1cccnc1)S(=O)(=O)c1ccc(S(=O)(=O)N2CCCCCC2)cc1,"inconclusive [inhibitor, full curve, poor fit]",–
O=C1C(C2=C(O)c3ccccc3C2=O)=Nc2ccccc21,"inconclusive [inhibitor, full curve]",–
Cc1ccc(C2CC(=O)C(C=NCCN3CCN(C(=O)Cc4ccccc4)CC3)=C(O)C2)cc1 (stereo unspecified),active: 22.4 µM,–
COc1ccc2[nH]c(C)c(CCN3CCC(=O)C(C)C3C)c2c1 (stereo unspecified),"inconclusive [inhibitor, partial curve]",–
COCC(=O)Oc1c(Sc2ccccc2[N+](=O)[O-])c(C)nn1C(C)(C)C,"inconclusive [inhibitor, partial curve]",–
